From PubChem BioAssay AID1745853 (National Center for Advancing Translational Sciences (NCATS), 2022)
The other results are listed elsewhere or left out. The main result of the screen is listed elsewhere. These columns were measured beside it and carry no call.

Assays:
Experiment in all cases: Primary Screen for Target Class Profiling of Small Molecule Inhibitors of Methyltransferases
[1] = biological target: Glycine N-methyltransferase (Homo sapiens) (UniProt Q14749); conditions: purified enzyme, MTase-Glo SAH luminescence; measured here: GNMT inhibition; at 40 µM; stronger effect = lower value
Method in brief: (§1)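 Each enzyme was assayed with SAM and its substrate. SAH formation detected by MTase-Glo luminescence; single-point 40 uM screen[…].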

[2] = biological target: Guanidinoacetate N-methyltransferase (Homo sapiens) (UniProt Q14353); conditions: purified enzyme, MTase-Glo SAH luminescence; measured here: GAMT inhibition; at 40 µM; stronger effect = lower value
Method in brief: as §1

[3] = biological target: Histamine N-methyltransferase (Homo sapiens) (UniProt P50135); conditions: purified enzyme, MTase-Glo SAH luminescence; measured here: HNMT inhibition; at 40 µM; stronger effect = lower value
Method in brief: as §1

[4] = biological target: Nicotinamide N-methyltransferase (Homo sapiens) (UniProt P40261); conditions: purified enzyme, MTase-Glo SAH luminescence; measured here: NNMT inhibition; at 40 µM; stronger effect = lower value
Method in brief: as §1

[5] = biological target: Phenylethanolamine N-methyltransferase (Homo sapiens) (UniProt P11086); conditions: purified enzyme, MTase-Glo SAH luminescence; measured here: PNMT inhibition; at 40 µM; stronger effect = lower value
Method in brief: as §1
% is scaled to controls: 0 for no effect and ±100 for the full control effect.

Compound	activity change, negative = inhibition [1]	activity change, negative = inhibition [2]	activity change, negative = inhibition [3]	activity change, negative = inhibition [4]	activity change, negative = inhibition [5]
CCCCN1C(=O)c2cc3ccccc3n2CC1(C)C(=O)NC1CCCCC1 (stereo not given)	0.101%	3.13%	7.84%	6.72%	3.09%
O=C1CCN(C(=O)Cc2ccccc2)CCCOCCN1	-6.75%	-10.9%	-17.9%	-14.1%	-9.45%
Cc1cccc(NC(=O)Cn2nc3n(C)c(=O)c4ccc(C(=O)NC5CCCC5)cc4n3c2=O)c1	0.953%	-0.237%	-0.971%	0.481%	-5.23%
CNC(=O)c1noc([C@@H]2CC(F)(F)CN2Cc2cccn2C)n1	-9.25%	-6.16%	-2.49%	-2.41%	-8.81%
CCC[C@@H]1CN(C(=O)c2cc(-c3cccs3)n(C)n2)C[C@H]1N(C)C	-6.97%	-2.84%	-1.89%	-6.23%	-1.73%
COCCCN1C(=O)c2cc3ccccc3n2CC1(C)C(=O)NC1CCCCC1 (stereo not given)	-4.65%	4.23%	-0.905%	2.56%	-0.288%
CCCN1C(=O)c2c(C(=O)NCc3cccc(Cl)c3)ncn2CC1(C)C(=O)NC1CCCC1 (stereo not given)	-0.967%	0%	4.08%	2.23%	1.75%
CC(C(=O)O)C1CCC2(C)C3C(=O)C=C4C(CCC(=O)C4(C)C)C3(C)CCC12C (stereo not given)	0.288%	1.18%	8.14%	-13.7%	5.37%
CCCn1c(=O)c2ccc(C(=O)NC3CCCC3)cc2n2c(=O)n(CC(=O)c3ccc(OC)cc3)nc12	0.7%	-2.08%	2.19%	-3.68%	-3.62%
CN(C)c1ccc(CN2C(=O)c3cc(-c4ccccc4)nn3CC2(C)C(=O)NCc2ccccc2)cc1 (stereo not given)	-4.46%	1.31%	-3.31%	-10.3%	-9.52%
CC1CCC(NC(=O)C2(C)Cn3c(ccc3-c3ccccc3)C(=O)N2CC(C)c2ccccc2)CC1 (stereo not given)	3.14%	1.74%	-1.87%	-3.84%	-1.42%
COc1ccccc1CNC(=O)C1(C)Cn2nc(-c3ccccc3)cc2C(=O)N1c1ccc(Cl)cc1C (stereo not given)	-0.699%	5.24%	1.19%	-6.06%	-4.78%
CC(=O)[C@]1(O)Cc2c(O)c3c(c(O)c2[C@@H](O[C@H]2C[C@H](N)[C@H](O)[C@H](C)O2)C1)C(=O)c1ccccc1C3=O	-16.7%	6.02%	-4.2%	-14.3%	-3.82%
CC(O)/C=C/C1(O)C(C)C(O)C(O[C@@H]2O[C@H](CO)[C@@H](O)[C@H](O)[C@H]2O)CC1(C)C (stereo not given in full)	-1.29%	-1.6%	2.49%	-12.6%	-7.96%
COc1ccc(CN2C(=O)c3cc4sccc4n3CC2(C)C(=O)NC2CCC(C)CC2)cc1OC (stereo not given)	-3.71%	4.87%	-4.17%	-72.7%	-0.916%
COc1ccc(N2C(=O)c3cc4ccccc4n3CC2(C)C(=O)NCCC(C)C)cc1OC (stereo not given)	7.51%	0.906%	10.8%	1.04%	6.1%
